This passage reports result_ITMP results from publication PMC13083723 (Patterns, 2026).

The campaign covered roughly 5,400 compounds. About 190 (3.5%) showed an effect of 50% or more. This is one part of the list.

This assay relates to Vero-E6. The experiment in a line: primary screen, phospholipidosis by LipidTOX staining; higher = more effect of the substance. To be noted: 10 µM. Summed up: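 Drug-induced phospholipidosis detected with HCS LipidTOX Red reagent in Vero-E6 cells. Compounds tested at 10 μM, with amiodarone (10 μM) as positive control and DMSO (0.1 v/v %) as vehicle.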
For the molecule `Cc1cc(NC(=O)Nc2ccc(F)c(F)c2)n(-c2ccccc2)n1`, the result_ITMP was -2.49%. Take `CCn1c(-c2nonc2N)nc2cnc(Oc3cccc(NC(=O)c4ccc(OCCN5CCOCC5)cc4)c3)cc21`: the result_ITMP worked out at 26.7%. As to `Cc1cccc(NC(=O)c2ccc(C(F)(F)F)cc2C(=O)O)n1`, the result_ITMP was -1.47%. With `CC(C)(C)C(O)/C=C/c1ccc2c(c1)OCO2` (stereo not shown) the figure was -1.46%; with `CCc1cc(/C(C)=N/OCc2ccc(C3CCCCC3)c(C(F)(F)F)c2)ccc1CN1CC(C(=O)O)C1`, -6.28%; with `CCN(CCCc1ccccc1)CCCc1ccccc1`, 58.9%.

As for `Cc1cccc(Oc2cnc(=O)[nH]c2)c1`, the result_ITMP is -0.63%.

For the molecule `C[C@@H](C1=C(CCN(C)C)Cc2ccccc21)c1ccccn1`, the result_ITMP is recorded as 12%. As for `COc1cc2c(cc1OC)CN(CCc1ccc(NC(=O)c3cccc4c(=O)c5cccc(OC)c5[nH]c34)cc1)CC2`, the figure is -2.1%; as for `CC(CCc1ccc(O)cc1)NCC(O)c1ccc(O)cc1` (stereo not shown), 1.5%; as for `CC(=O)[C@H]1CC[C@H]2[C@@H]3CC=C4C[C@@H](OC(=O)CCC(=O)O)CC[C@]4(C)[C@H]3CC[C@]12C`, 1.56%. For the molecule `CC(O)C(CO)NC(=O)C1CSSCC(NC(=O)C(N)Cc2ccccc2)C(=O)NC(Cc2ccccc2)C(=O)NC(Cc2c[nH]c3ccccc23)C(=O)NC(CCCCN)C(=O)NC(C(C)O)C(=O)N1` (stereo not shown), the result_ITMP is reported as -2.71%. As for `Cc1[nH]c(/C=C2\C(=O)Nc3ccc(S(=O)(=O)Cc4c(Cl)cccc4Cl)cc32)c(C)c1C(=O)N1CCC[C@@H]1CN1CCCC1`, the result_ITMP is recorded as -0.4%. As for `COc1ccc(CNCc2cccc3ccccc23)cc1`, the result_ITMP was 11.4%.

Turning to `NC(=O)[C@@H](CCC(F)(F)F)N(Cc1ccc(-c2ncon2)cc1F)S(=O)(=O)c1ccc(Cl)cc1`, the result_ITMP came to 2.75%. `C=C(C)CN1CC[C@]23c4c5ccc(O)c4O[C@H]2c2[nH]c4ccccc4c2C[C@@]3(O)C1C5`: the result_ITMP is on record as 32.1%.

As to `CCCCCCCCCC(=O)O[C@H]1CC[C@H]2[C@@H]3CCC4=CC(=O)CC[C@@H]4[C@H]3CC[C@]12C`, the result_ITMP is recorded as -0.22%. As for `CC1=C(C(=O)O)N2C(=O)[C@@H](NC(=O)[C@H](N)c3ccc(O)cc3)[C@H]2SC1`, the figure is -1.06%.

As to `N#CC(=C(/N)Sc1ccccc1N)/C(C#N)=C(\N)Sc1ccccc1N`, the result_ITMP is on record as -4.66%. As for `C[C@@]1(O)[C@H](O)[C@@H](CO)O[C@H]1n1cnc2c(NC3CCCC3)nc(Cl)nc21`, the figure is -1.91%; as for `CC(C)c1onc(-c2c(Cl)cccc2Cl)c1COc1ccc(/C=C/c2cccc(C(=O)O)c2)c(Cl)c1`, -2.39%.

Take `Nc1nc(Nc2ccc(S(N)(=O)=O)cc2)nn1C(=O)c1c(F)cccc1F`: the result_ITMP came out at 20.5%.
